The list shows a part of the results. Repeats are few or missing, and single values can be far off.
tested on: SkMel5; test: cell count relative to DMSO control; melanoma cells; higher = more viable cells; conditions: library dose: standard library concentration; 72 h
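Note: cells treated in 1,536-well plates, then fixed and DAPI-stained, with nuclei counted from automated high-throughput microscope images.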

SMILES | cell count
C[As](C)SC[C@H](NC(=O)CC[C@H](N)C(=O)O)C(=O)NCC(=O)O [Darinaparsin] + O=C1NC(=O)/C(=C/c2ccc(-c3ccc(F)cc3O)o2)S1 [AS252424] (first compound 2 µM, partner dose 5 µM) | 88.1%
C[C@]12O[C@H](C[C@]1(O)CO)n1c3ccccc3c3c4c(c5c6ccccc6n2c5c31)CNC4=O [Lestaurtinib] + COc1ccc(Cl)c(Nc2nc3ccccc3nc2NS(=O)(=O)c2cccc(NC(=O)C(C)(C)N)c2)c1 [XL147] (first compound 0.02 µM, partner dose 4 µM) | 52.5%
Cn1cc(C2=C(c3cn(C4CCN(Cc5ccccn5)CC4)c4ccccc34)C(=O)NC2=O)c2ccccc21 [Enzastaurin] + OCc1c[nH]c2ccccc12 [Indole-3-carbinol] (first compound 4 µM, partner dose 4 µM) | 91.6%
C[As](C)SC[C@H](NC(=O)CC[C@H](N)C(=O)O)C(=O)NCC(=O)O [Darinaparsin] + O=c1cc(-c2cccc3c2Sc2ccccc2S3)oc(N2CCOCC2)c1 [KU55933] (first compound 2 µM, partner dose 5 µM) | 62.7%
Cn1cc(C2=C(c3cn(C4CCN(Cc5ccccn5)CC4)c4ccccc34)C(=O)NC2=O)c2ccccc21 [Enzastaurin] + Cc1cc(N2CCOCC2)cc2[nH]c(-c3c(NC[C@@H](O)c4cccc(Cl)c4)cc[nH]c3=O)nc12 [BMS536924] (first compound 4 µM, partner dose 1 µM) | 70%
Cn1cc(C2=C(c3cn(C4CCN(Cc5ccccn5)CC4)c4ccccc34)C(=O)NC2=O)c2ccccc21 [Enzastaurin] + NC(=O)Nc1cc(-c2cccc(F)c2)sc1C(=O)N[C@H]1CCCNC1 [AZD7762] (first compound 4 µM, partner dose 0.1 µM) | 78.5%
N.N.[Cl][Pt][Cl] [cisplatin] + CC(C)(C)c1cnc(CSc2cnc(NC(=O)C3CCNCC3)s2)o1 [SNS-032] (first compound 8 µM, partner dose 0.05 µM) | 80.1%
N.N.[Cl][Pt][Cl] [cisplatin] + OCCn1cc(-c2cnc3nnn(Cc4ccc5ncccc5c4)c3n2)cn1 [PF04217903] (first compound 8 µM, partner dose 5 µM) | 84.1%
Cn1cc(C2=C(c3cn(C4CCN(Cc5ccccn5)CC4)c4ccccc34)C(=O)NC2=O)c2ccccc21 [Enzastaurin] + N.N.[Cl][Pt][Cl] [cisplatin] (first compound 4 µM, partner dose 8 µM) | 99.7%
C[C@]12O[C@H](C[C@]1(O)CO)n1c3ccccc3c3c4c(c5c6ccccc6n2c5c31)CNC4=O [Lestaurtinib] + OCCn1cc(-c2cnc3nnn(Cc4ccc5ncccc5c4)c3n2)cn1 [PF04217903] (first compound 0.02 µM, partner dose 5 µM) | 72.2%
Cn1cc(C2=C(c3cn(C4CCN(Cc5ccccn5)CC4)c4ccccc34)C(=O)NC2=O)c2ccccc21 [Enzastaurin] + COc1ccc(Cl)c(Nc2nc3ccccc3nc2NS(=O)(=O)c2cccc(NC(=O)C(C)(C)N)c2)c1 [XL147] (first compound 4 µM, partner dose 4 µM) | 72.5%
C[As](C)SC[C@H](NC(=O)CC[C@H](N)C(=O)O)C(=O)NCC(=O)O [Darinaparsin] + O=C(O)c1ccc(-c2c[nH]c3ncc(-c4ccccc4)cc23)cc1C1CCCC1 [GSK650394] (first compound 2 µM, partner dose 0.8 µM) | 55.9%
C[As](C)SC[C@H](NC(=O)CC[C@H](N)C(=O)O)C(=O)NCC(=O)O [Darinaparsin] + COc1cc2ncnc(Nc3ccc(Oc4ccccc4)cc3)c2cc1OC [SrcI1] (first compound 2 µM, partner dose 10 µM) | 43.7%
N.N.[Cl][Pt][Cl] [cisplatin] + C=CCNC1=C2C[C@@H](C)C[C@H](OC)[C@H](O)[C@@H](C)/C=C(\C)[C@H](OC(N)=O)[C@@H](OC)/C=C\C=C(/C)C(=O)NC(=CC1=O)C2=O [Tanespimycin] (first compound 8 µM, partner dose 0.01 µM) | 71.9%
C[C@]12O[C@H](C[C@]1(O)CO)n1c3ccccc3c3c4c(c5c6ccccc6n2c5c31)CNC4=O [Lestaurtinib] + Cn1c(Nc2ccc(C(F)(F)F)cc2)nc2cc(Oc3ccnc(-c4ncc(C(F)(F)F)[nH]4)c3)ccc21 [CHIR265] (first compound 0.02 µM, partner dose 0.4 µM) | 42.6%

tested on: UACC257; test: as above; conditions: library dose: standard library concentration; 72 h

SMILES | cell count
C[C@]12O[C@H](C[C@]1(O)CO)n1c3ccccc3c3c4c(c5c6ccccc6n2c5c31)CNC4=O [Lestaurtinib] + O=C(Nc1cccc(Cl)c1)Nc1ncc(CCNc2ncnc3ccsc23)s1 [SNS314] (first compound 0.02 µM, partner dose 0.004 µM) | 73.2%
N.N.[Cl][Pt][Cl] [cisplatin] + CO[C@H]1C[C@@H]2CC[C@@H](C)[C@@](O)(O2)C(=O)C(=O)N2CCCC[C@H]2C(=O)O[C@H]([C@H](C)C[C@@H]2CC[C@@H](OCCO)[C@H](OC)C2)CC(=O)[C@H](C)/C=C(\C)[C@@H](O)[C@@H](OC)C(=O)[C@H](C)C[C@H](C)/C=C/C=C/C=C/1C [everolimus] (first compound 8 µM, partner dose 0.1 µM) | 83.9%
C[C@]12O[C@H](C[C@]1(O)CO)n1c3ccccc3c3c4c(c5c6ccccc6n2c5c31)CNC4=O [Lestaurtinib] + NC(=O)Nc1cc(-c2cccc(F)c2)sc1C(=O)N[C@H]1CCCNC1 [AZD7762] (first compound 0.02 µM, partner dose 0.1 µM) | 109%
C[As](C)SC[C@H](NC(=O)CC[C@H](N)C(=O)O)C(=O)NCC(=O)O [Darinaparsin] + Oc1nc(-c2ccc(C(F)(F)F)cc2)nc2c1CSCC2 [XAV939] (first compound 2 µM, partner dose 10 µM) | 61.4%
C[As](C)SC[C@H](NC(=O)CC[C@H](N)C(=O)O)C(=O)NCC(=O)O [Darinaparsin] + COc1ccc2c(c1)CCC1C2CCC2(C)C(NCCCCCCN3C(=O)C=CC3=O)CCC12 [U73122] (first compound 2 µM, partner dose 2 µM) | 86.4%
C[C@]12O[C@H](C[C@]1(O)CO)n1c3ccccc3c3c4c(c5c6ccccc6n2c5c31)CNC4=O [Lestaurtinib] + O=C(O)c1ccc(-c2c[nH]c3ncc(-c4ccccc4)cc23)cc1C1CCCC1 [GSK650394] (first compound 0.02 µM, partner dose 0.8 µM) | 79.6%
Cn1cc(C2=C(c3cn(C4CCN(Cc5ccccn5)CC4)c4ccccc34)C(=O)NC2=O)c2ccccc21 [Enzastaurin] + C=C(c1ccc(C(=O)O)cc1)c1cc2c(cc1C)C(C)(C)CCC2(C)C [Bexarotene] (first compound 4 µM, partner dose 10 µM) | 101%
N.N.[Cl][Pt][Cl] [cisplatin] + CO[C@@H]1[C@H](N(C)C(=O)c2ccccc2)C[C@H]2O[C@]1(C)n1c3ccccc3c3c4c(c5c6ccccc6n2c5c31)C(=O)NC4 [Midostaurin] (first compound 8 µM, partner dose 0.4 µM) | 53.5%
Cn1cc(C2=C(c3cn(C4CCN(Cc5ccccn5)CC4)c4ccccc34)C(=O)NC2=O)c2ccccc21 [Enzastaurin] + CNC(=O)c1cc(Oc2ccc(NC(=O)Nc3ccc(Cl)c(C(F)(F)F)c3)cc2)ccn1 [sorafenib] (first compound 4 µM, partner dose 2 µM) | 74.5%
Cn1cc(C2=C(c3cn(C4CCN(Cc5ccccn5)CC4)c4ccccc34)C(=O)NC2=O)c2ccccc21 [Enzastaurin] + CC(C)C[C@H](NC(=O)[C@H](Cc1ccccc1)NC(=O)c1cnccn1)B(O)O [Bortezomib] (first compound 4 µM, partner dose 0.005 µM) | 70.1%
Cn1cc(C2=C(c3cn(C4CCN(Cc5ccccn5)CC4)c4ccccc34)C(=O)NC2=O)c2ccccc21 [Enzastaurin] + Cc1cc(Nc2cc(N3CCN(C)CC3)nc(/C=C/c3ccccc3)n2)n[nH]1 [ENMD2076] (first compound 4 µM, partner dose 0.2 µM) | 72.1%
C[As](C)SC[C@H](NC(=O)CC[C@H](N)C(=O)O)C(=O)NCC(=O)O [Darinaparsin] + Cn1cc(/C=C2\C(=O)Nc3cccnc32)c2ccccc21 [GW441756] (first compound 2 µM, partner dose 2 µM) | 70.5%
C[As](C)SC[C@H](NC(=O)CC[C@H](N)C(=O)O)C(=O)NCC(=O)O [Darinaparsin] + CC(C)(C)c1cnc(CSc2cnc(NC(=O)C3CCNCC3)s2)o1 [SNS-032] (first compound 2 µM, partner dose 0.05 µM) | 79.6%
N.N.[Cl][Pt][Cl] [cisplatin] + CS(=O)(=O)CCNCc1ccc(-c2ccc3ncnc(Nc4ccc(OCc5cccc(F)c5)c(Cl)c4)c3c2)o1 [lapatinib] (first compound 8 µM, partner dose 4 µM) | 97.3%
C[C@]12O[C@H](C[C@]1(O)CO)n1c3ccccc3c3c4c(c5c6ccccc6n2c5c31)CNC4=O [Lestaurtinib] + C[C@]1(c2nc3c(C(N)=O)cccc3[nH]2)CCCN1 [Veliparib] (first compound 0.02 µM, partner dose 7 µM) | 85.6%

Reference: the supplement of paper PMC4604168 (melanoma cell lines)
